The record followed here is PMC4336329 (PLoS ONE, 2015).

In all, about 310,000 compounds went through this assay and about 2,200 (0.71%) showed an effect of 50% or more. Effects have a minus sign here. The list shows a part of the results.

For the test, the target named is human ether-à-go-go-related gene (hERG) potassium channel (human, UniProt Q12809). Nature of the test: primary screen, population patch clamp on CHO cells stably expressing hERG.
Chain of human ether-à-go-go-related gene (hERG) potassium channel (Q12809 whole entry, looked up): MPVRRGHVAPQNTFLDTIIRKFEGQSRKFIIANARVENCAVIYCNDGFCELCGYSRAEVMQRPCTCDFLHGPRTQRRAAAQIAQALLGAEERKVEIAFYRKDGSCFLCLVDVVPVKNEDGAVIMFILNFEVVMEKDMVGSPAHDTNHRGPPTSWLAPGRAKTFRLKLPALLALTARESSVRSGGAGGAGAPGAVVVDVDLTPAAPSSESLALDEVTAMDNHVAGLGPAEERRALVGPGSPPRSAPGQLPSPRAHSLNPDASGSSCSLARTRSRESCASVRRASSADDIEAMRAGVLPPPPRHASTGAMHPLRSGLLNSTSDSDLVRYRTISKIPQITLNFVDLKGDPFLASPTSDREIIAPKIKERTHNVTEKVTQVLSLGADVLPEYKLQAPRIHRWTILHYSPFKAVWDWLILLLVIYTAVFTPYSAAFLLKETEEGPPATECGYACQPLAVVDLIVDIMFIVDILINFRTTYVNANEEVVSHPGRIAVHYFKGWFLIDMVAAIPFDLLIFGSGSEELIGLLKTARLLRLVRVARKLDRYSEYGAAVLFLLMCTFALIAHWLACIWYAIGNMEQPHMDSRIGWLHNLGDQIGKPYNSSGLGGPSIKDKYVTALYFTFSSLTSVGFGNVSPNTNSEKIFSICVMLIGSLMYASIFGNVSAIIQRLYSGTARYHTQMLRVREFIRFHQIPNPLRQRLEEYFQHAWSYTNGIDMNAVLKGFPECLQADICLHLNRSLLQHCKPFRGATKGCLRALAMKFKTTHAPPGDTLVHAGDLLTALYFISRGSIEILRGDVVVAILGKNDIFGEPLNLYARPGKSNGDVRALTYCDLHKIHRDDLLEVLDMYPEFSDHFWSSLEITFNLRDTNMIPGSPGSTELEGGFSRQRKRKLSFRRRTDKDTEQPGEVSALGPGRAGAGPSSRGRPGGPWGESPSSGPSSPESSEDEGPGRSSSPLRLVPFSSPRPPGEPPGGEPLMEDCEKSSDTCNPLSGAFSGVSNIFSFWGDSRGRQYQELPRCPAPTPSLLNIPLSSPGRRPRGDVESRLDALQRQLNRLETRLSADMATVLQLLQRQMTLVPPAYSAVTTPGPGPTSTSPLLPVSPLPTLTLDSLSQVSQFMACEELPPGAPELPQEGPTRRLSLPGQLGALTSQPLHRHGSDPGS
Take `O=C(c1ccccc1)c1ccc(OCC(O)CN2CCN(Cc3ccccc3)CC2)cc1` (stereo not drawn): the “hERG current change (%, negative = inhibition) at 1uM” value was -39.8%.

`Cc1cc(NC(=O)c2c(Cl)cccc2Cl)no1`: the “hERG current change (%, negative = inhibition) at 1uM” value is recorded as 13.6%.

On to `CCN(CC)C(=O)c1sc(NC(=O)c2ccc(Br)o2)c(C(=O)OC)c1C`, for which the “hERG current change (%, negative = inhibition) at 1uM” value was found to be 1.7%.

Consider `C#C[C@@]1(O)CCC2C3CCC4=C/C(=N/OCC(=O)NC(C(=O)NC(CC(C)C)C(=O)O)C(C)C)CC[C@]4(C)C3CC[C@@]21C` (stereo partly drawn), for which the “hERG current change (%, negative = inhibition) at 1uM” value is reported as 10.4%.

Consider `Cc1nc2ccccc2c(=O)n1Nc1cccc(Cl)c1`, for which the “hERG current change (%, negative = inhibition) at 1uM” value came out at 1.73%.

`Cc1cccc(OCc2nnc(SCC(=O)Nc3cc(C)on3)n2C)c1`: the “hERG current change (%, negative = inhibition) at 1uM” value was -0.576%.

For `Cc1ccc(NC(=O)COC(=O)C2CCN(c3ccc(C(F)(F)F)cn3)CC2)cc1C`, the “hERG current change (%, negative = inhibition) at 1uM” value came out at 14.8%.

With `CCOc1ccc(NC(=O)C2CCCN(c3nn4c(=O)cc(C)nc4s3)C2)cc1` (stereo not drawn), the “hERG current change (%, negative = inhibition) at 1uM” value is 11.9%.

Take `Cc1c(C(=O)NN)nn(-c2ccc(Cl)cc2)c(=O)c1C#N`: the “hERG current change (%, negative = inhibition) at 1uM” value came to 11.6%.

With `CCc1ccc(NC(=S)NC2CC3CCCC(C2)N3Cc2ccccc2)cc1` (stereo not drawn), the “hERG current change (%, negative = inhibition) at 1uM” value is recorded as -30%.

On to `Cc1ccc(NC(=O)C(C)OC(=O)CCNS(=O)(=O)c2ccc(C)cc2)cc1` (stereo not drawn), for which the “hERG current change (%, negative = inhibition) at 1uM” value is on record as 3.63%.

With `COc1ccc(Cl)cc1-c1nc(SCC(N)=O)n[nH]1`, the “hERG current change (%, negative = inhibition) at 1uM” value was 10.2%.

In the case of `S=C(NC1CC1)N1CCN(C(=S)NC2CC2)CC1`, the “hERG current change (%, negative = inhibition) at 1uM” value was 15.6%.

Turning to `Nc1ccccc1C(=O)OCC(=O)c1ccc2c(c1)OCCO2`, the “hERG current change (%, negative = inhibition) at 1uM” value is on record as 12.4%.

Take `COc1ccc(C2C(C(=O)c3ccco3)=C(O)C(=O)N2CCN2CCOCC2)c(OC)c1` (stereo not drawn): the “hERG current change (%, negative = inhibition) at 1uM” value came out at 19.1%.

Take `CCCS(=O)(=O)N1CCC(C(=O)Oc2ccc(OC)cc2)CC1`: the “hERG current change (%, negative = inhibition) at 1uM” value worked out at 19.3%.

In the case of `Cn1c(=O)c2c(nc(CN3CCC(C(N)=O)CC3)n2CCc2ccccc2)n(C)c1=O`, the “hERG current change (%, negative = inhibition) at 1uM” value was determined as 8.7%.

With `CCN(CC)CC(=O)Nc1ccc(C)cc1Br`, the “hERG current change (%, negative = inhibition) at 1uM” value is reported as 10.8%.

For `c1ccc2c(Cn3ccnc3)c[nH]c2c1`, the “hERG current change (%, negative = inhibition) at 1uM” value amounted to 9.33%.

With `CCN(CC)S(=O)(=O)c1cc(C(=O)OCC(=O)Nc2ccc(-c3nc4ccc(C)cc4s3)cc2)ccc1F`, the “hERG current change (%, negative = inhibition) at 1uM” value was 11.4%.

Take `COc1ccc(C(=O)N2CCc3cc(OC)c(OC)cc3C2)cc1OC`: the “hERG current change (%, negative = inhibition) at 1uM” value came to 1.85%.

In the case of `CC1(NC(=O)CSc2nnc(-c3c[nH]c4ccccc34)n2C2CC2)CCS(=O)(=O)C1` (stereo not drawn), the “hERG current change (%, negative = inhibition) at 1uM” value came out at 8.77%.

On to `C/C=C/c1ccc(OCC(=O)Nc2cc(S(=O)(=O)N3CCOCC3)ccc2N2CCCC2)c(OC)c1`, for which the “hERG current change (%, negative = inhibition) at 1uM” value came out at 15.1%.

In the case of `Cc1ccc(N(CCC#N)C(=O)COC(=O)c2ccccc2SCC(=O)N2CCCC2)cc1`, the “hERG current change (%, negative = inhibition) at 1uM” value is 15.2%.
